Assay results as given in the supplement of paper PMC4166925.
± gives the standard deviation of the averaged measurements. Over roughly 33,000 sequences, “E-score (dimensionless, -0.5 to 0.5)” has its median near -0.049; the highest 2% begin near 0.37. This is one part of the list.

tested on: T1, PmTbr T-box DNA-binding domain (GST fusion); assay: PBM E-score of 8-mer (E-score (dimensionless, -0.5 to 0.5)); Tbr is Tbrain of the sea star Patiria miniata (Pm) or the sea urchin Strongylocentrotus purpuratus (Sp); higher = stronger binding preference; most listed sequences are background and not binding sites; conditions: the construct has about 5 more residues each side
T1 sequence: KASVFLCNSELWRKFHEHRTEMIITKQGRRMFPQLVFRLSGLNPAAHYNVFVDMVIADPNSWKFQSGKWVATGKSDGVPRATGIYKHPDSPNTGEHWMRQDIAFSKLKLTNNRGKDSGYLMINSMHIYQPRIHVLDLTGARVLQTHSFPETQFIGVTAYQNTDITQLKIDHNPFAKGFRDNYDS
Procedure: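 Universal protein-binding microarray (Agilent AMADID 016060, 60-bp probes with a 35-bp variable region) incubated with 200 nM GST-fused Patiria miniata Tbr T-box DNA-binding domain (residues 272-466) in PBS pH 7.5. Scored for every ungapped 8-mer (given with its reverse complement) by the Universal PBM Analysis Suite as E-score (modified Wilcoxon-Mann-Whitney enrichment, range -0.5 to 0.5; >0.45 counts as bound) and Z-score of median probe intensity. Two replicate arrays (datasets 1 and 2).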

Row | Sequence | PBM E-score of 8-mer
1 | CGAGCCCC | 0.0194 ± 0.015
2 | AGCACTAG | -0.167 ± 0.018
3 | GCAGATAC | -0.135 ± 0.035
4 | CTGATATA | -0.0707 ± 0.018
5 | GTTCATCA | -0.0322 ± 0.044
6 | CGATCACC | 0.0573 ± 0.022
7 | ACGACTCT | -0.0693 ± 0.011
8 | CTGCGAAA | 0.368 ± 0.0074
9 | AGCTGACT | -0.149 ± 0.049
10 | CTGTAGTA | -0.232 ± 0.056
11 | CATCTGGA | -0.0451 ± 0.068
12 | CCGGCGTA | -0.135 ± 0.062
13 | GATTTTTA | -0.12 ± 0.11
14 | CCTTCGAG | 0.0506 ± 0.051
15 | AACGTGCA | 0.0842 ± 0.061
16 | GATAGCCC | -0.196 ± 0.047
17 | ACGCAACT | -0.0771 ± 0.13
18 | CTTGGATC | -0.128 ± 0.0099
19 | CGGTGGAA | -0.151 ± 0.008
20 | AGGGAAAG | -0.118 ± 0.02
21 | GAAGATAA | -0.0534 ± 0.046
22 | CAAGTCAG | -0.0747 ± 0.087

Row | Sequence | PBM E-score of 8-mer
23 | AACTTAAG | -0.124 ± 0.039
24 | GAACTGCC | -0.0593 ± 0.032
25 | ATGGAGTC | -0.159 ± 0.0025
26 | GACCGATA | -0.0823 ± 0.0091
27 | ATCTGCGA | 0.139 ± 0.029
28 | CCCGATCG | -0.177 ± 0.02
29 | ACTGTGGA | -0.0904 ± 0.087
30 | AGGGAGGA | -0.3317 ± 0.00035
31 | GATCCGCC | -0.139 ± 0.043
32 | CGCCTGAC | 0.131 ± 0.037
33 | GTCGAGCA | -0.045 ± 0.037
34 | ATTCCCTG | -0.117 ± 0.028
35 | GTAGCTAC | -0.4 ± 0.032
36 | CCGCCTAG | -0.0558 ± 0.09
37 | AATGGTCC | -0.281 ± 0.014
38 | AGCAGTAG | -0.0991 ± 0.011
39 | AAGCGCAA | 0.0876 ± 0.052
40 | AGACCAGA | -0.229 ± 0.068
41 | ATTGCTAA | 0.1815 ± 0.0012
42 | CACATTAG | 0.261 ± 0.016
43 | CGGAACTA | -0.0825 ± 0.011
44 | GGATATCC | -0.1072 ± 0.00017

Row | Sequence | PBM E-score of 8-mer
45 | AGACGACT | -0.237 ± 0.059
46 | GAATATCC | -0.274 ± 0.066
47 | CGTTAGAA | -0.0209 ± 0.054
48 | ACTTCCTA | 0.00936 ± 0.068
49 | AGCGCGTC | 0.215 ± 0.034
50 | ACACTAAA | 0.177 ± 0.055
51 | GCAGCACC | 0.258 ± 0.032
52 | CTGGGTCC | -0.0854 ± 0.066
53 | CCATGTCC | -0.36 ± 0.015
54 | GGCCGCAA | -0.0658 ± 0.058
55 | CGAACGTA | -0.0181 ± 0.0094
56 | AATGTCGT | -0.00733 ± 0.0032
57 | ACGGACCC | -0.108 ± 0.015
58 | GCGAACCC | 0.15 ± 0.039
59 | AGAAAACT | -0.127 ± 0.15
60 | AGAGACAC | 0.124 ± 0.026
61 | ACGTAAAT | -0.0451 ± 0.033
62 | AGCCCGGA | -0.3 ± 0.021
63 | CATATTGA | -0.0595 ± 0.011
64 | CAAACGCA | -0.086 ± 0.0022
65 | CATTGGAG | -0.0404 ± 0.075
66 | CGGTGCTA | 0.321 ± 0.0088

Row | Sequence | PBM E-score of 8-mer
67 | CATCTAAC | 0.0827 ± 0.038
68 | GTAACTAA | -0.275 ± 0.031
69 | CGGGTGCA | 0.136 ± 0.024
70 | CAGTGGGC | -0.0573 ± 0.025
71 | CAATGGCC | -0.115 ± 0.0065
72 | CCCCTGCA | -0.125 ± 0.044
73 | GACATCAC | 0.167 ± 0.021
74 | AATGACTC | -0.0348 ± 0.078
75 | GACTTGCC | 0.189 ± 0.016
76 | AATGACAG | 0.0032 ± 0.088
77 | ACAAGAGA | -0.0905 ± 0.018
78 | ATACATTC | -0.0803 ± 0.0088
79 | CTAGGCAA | -0.137 ± 0.05
80 | CATCACGA | -0.008 ± 0.1
81 | CTCTGTCC | -0.14 ± 0.021
82 | AACGTGGG | 0.165 ± 0.045
83 | CAATGTTC | -0.00709 ± 0.021
84 | CCTCTCGA | 0.152 ± 0.018
85 | AGCATCCG | -0.0104 ± 0.039
86 | ATGCTCTG | -0.142 ± 0.0066
